# The other results are listed elsewhere or left out.
# B1: GS13686A-pdi-553-26-553 (Parabacteroides distasonis) (protein)
# chain: NENPDKPTDDVNYNMNEPRLASTLRGGLIIEGNVEQRLKPLQIDFYSQMTVDGGGWGTKNYIQDDEWNNLVWEEYLKQIASINIVIRSLTEKDKDAYANTIAFARIWRVYVHTLAADKFGPMPFPAYEIVEANPPYKSLKDIYDEYFRELDAAINGFNDSAQPIFSDAGIDLIYKNDVSKWKRFANSLRLRLAVRLTEVDQEKCIAEANAAISSPAGLISDKADNAYMPPKADGSWGQDYNYTMFQITWSGPICMSKSVEKLVTNIGGVAWPQGVVNQTSGVAVSSVHPEKVDPRAPKIFQPGIENGDWKGLVYGPKAEEANTGIYQSKQCAELGFIIKDGYPYKSRPYDLFLSEEVHFLKAELYARGFIAGDAKSEYEAGVRASFATWGVTSEVDDYLTSTEKNEAGTSARYDDQQGAGNTALEKIITQKYIAGIPDLAQEGWNDKRRLNLPRLDVAVYRDQAVYNNNDKDILKSANFIKRMRYPTKESLINATEYEKGKSMLGGKGDIVSTPLWWDKNSNYCTSSK
# Experiments:
# Assay in all cases: glycan array binding signal (z-score within array); higher = stronger binding
# Details in all cases: glycan notation: IUPAC condensed, linker removed
# [1] = target: Gal(b1-4)GlcNAc(b1-3)Gal(b1-4)GlcNAc(b1-2)[Gal(b1-4)GlcNAc(b1-3)Gal(b1-4)GlcNAc(b1-6)]Man(a1-6)[Gal(b1-4)GlcNAc(b1-3)Gal(b1-4)GlcNAc(b1-2)Man(a1-3)]Man(b1-4)GlcNAc(b1-4)GlcNAc
# Procedure, shortened: (§1)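 The Consortium for Functional Glycomics database supplied 3228 glycan arrays, of which those lacking an available protein sequence were dropped. The binding signal, a within-array Z-score, was averaged across arrays of the same protein sequence and across linkers. Negative scores can be read as non-binding.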
# [2] = target: Gal(b1-4)GlcNAc(b1-3)Gal(b1-4)GlcNAc(b1-2)[Gal(b1-4)GlcNAc(b1-3)Gal(b1-4)GlcNAc(b1-6)]Man(a1-6)[Gal(b1-4)GlcNAc(b1-3)Gal(b1-4)GlcNAc(b1-2)Man(a1-3)]Man(b1-4)GlcNAc(b1-4)[Fuc(a1-6)]GlcNAc
# Procedure, shortened: as §1
# [3] = target: Gal(b1-4)GlcNAc(b1-3)Gal(b1-4)GlcNAc(b1-3)Gal(b1-4)GlcNAc
# Procedure, shortened: as §1
# [4] = target: Gal(b1-4)GlcNAc(b1-3)Gal(b1-4)GlcNAc(b1-3)Gal(b1-4)GlcNAc(b1-2)Man(a1-3)[Gal(b1-4)GlcNAc(b1-3)Gal(b1-4)GlcNAc(b1-3)Gal(b1-4)GlcNAc(b1-2)Man(a1-6)]Man(b1-4)GlcNAc(b1-4)GlcNAc
# Procedure, shortened: as §1
# [5] = target: Gal(b1-4)GlcNAc(b1-3)Gal(b1-4)GlcNAc(b1-3)Gal(b1-4)GlcNAc(b1-2)Man(a1-3)[Gal(b1-4)GlcNAc(b1-3)Gal(b1-4)GlcNAc(b1-3)Gal(b1-4)GlcNAc(b1-2)Man(a1-6)]Man(b1-4)GlcNAc(b1-4)[Fuc(a1-6)]GlcNAc
# Procedure, shortened: as §1
# [6] = target: Gal(b1-4)GlcNAc(b1-3)Gal(b1-4)GlcNAc(b1-3)Gal(b1-4)GlcNAc(b1-2)[Gal(b1-4)GlcNAc(b1-3)Gal(b1-4)GlcNAc(b1-3)Gal(b1-4)GlcNAc(b1-6)]Man(a1-6)[Gal(b1-4)GlcNAc(b1-3)Gal(b1-4)GlcNAc(b1-3)Gal(b1-4)GlcNAc(b1-2)Man(a1-3)]Man(b1-4)GlcNAc(b1-4)[Fuc(a1-6)]GlcNAc
# Procedure, shortened: as §1
# [7] = target: Gal(b1-4)GlcNAc(b1-3)Gal(b1-4)GlcNAc(b1-3)Gal(b1-4)GlcNAc(b1-3)Gal(b1-4)GlcNAc(b1-2)Man(a1-3)[Gal(b1-4)GlcNAc(b1-3)Gal(b1-4)GlcNAc(b1-3)Gal(b1-4)GlcNAc(b1-3)Gal(b1-4)GlcNAc(b1-2)Man(a1-6)]Man(b1-4)GlcNAc(b1-4)GlcNAc
# Procedure, shortened: as §1
# [8] = target: Gal(b1-4)GlcNAc(b1-3)Gal(b1-4)GlcNAc(b1-3)Gal(b1-4)GlcNAc(b1-3)Gal(b1-4)GlcNAc(b1-2)Man(a1-3)[Gal(b1-4)GlcNAc(b1-3)Gal(b1-4)GlcNAc(b1-3)Gal(b1-4)GlcNAc(b1-3)Gal(b1-4)GlcNAc(b1-2)Man(a1-6)]Man(b1-4)GlcNAc(b1-4)[Fuc(a1-6)]GlcNAc
# Procedure, shortened: as §1
# [9] = target: Gal(b1-4)GlcNAc(b1-3)Gal(b1-4)GlcNAc(b1-3)Gal(b1-4)GlcNAc(b1-3)Gal(b1-4)GlcNAc(b1-2)[Gal(b1-4)GlcNAc(b1-3)Gal(b1-4)GlcNAc(b1-3)Gal(b1-4)GlcNAc(b1-3)Gal(b1-4)GlcNAc(b1-6)]Man(a1-6)[Gal(b1-4)GlcNAc(b1-3)Gal(b1-4)GlcNAc(b1-3)Gal(b1-4)GlcNAc(b1-3)Gal(b1-4)GlcNAc(b1-2)Man(a1-3)]Man(b1-4)GlcNAc(b1-4)[Fuc(a1-6)]GlcNAc
# Procedure, shortened: as §1
# [10] = target: Gal(b1-4)GlcNAc(b1-3)Gal(b1-4)GlcNAc(b1-3)Gal(b1-4)GlcNAc(b1-3)Gal(b1-4)GlcNAc(b1-3)Gal(b1-4)GlcNAc(b1-2)Man(a1-3)[Gal(b1-4)GlcNAc(b1-3)Gal(b1-4)GlcNAc(b1-3)Gal(b1-4)GlcNAc(b1-3)Gal(b1-4)GlcNAc(b1-3)Gal(b1-4)GlcNAc(b1-2)Man(a1-6)]Man(b1-4)GlcNAc(b1-4)GlcNAc
# Procedure, shortened: as §1
# [11] = target: Gal(b1-4)GlcNAc(b1-3)Gal(b1-4)GlcNAc(b1-3)Gal(b1-4)GlcNAc(b1-3)Gal(b1-4)GlcNAc(b1-3)Gal(b1-4)GlcNAc(b1-2)Man(a1-3)[Gal(b1-4)GlcNAc(b1-3)Gal(b1-4)GlcNAc(b1-3)Gal(b1-4)GlcNAc(b1-3)Gal(b1-4)GlcNAc(b1-3)Gal(b1-4)GlcNAc(b1-2)Man(a1-6)]Man(b1-4)GlcNAc(b1-4)[Fuc(a1-6)]GlcNAc
# Procedure, shortened: as §1
# [12] = target: Gal(b1-4)GlcNAc(b1-3)Gal(b1-4)GlcNAc(b1-3)Gal(b1-4)GlcNAc(b1-3)Gal(b1-4)GlcNAc(b1-3)Gal(b1-4)GlcNAc(b1-2)[Gal(b1-4)GlcNAc(b1-3)Gal(b1-4)GlcNAc(b1-3)Gal(b1-4)GlcNAc(b1-3)Gal(b1-4)GlcNAc(b1-3)Gal(b1-4)GlcNAc(b1-6)]Man(a1-6)[Gal(b1-4)GlcNAc(b1-3)Gal(b1-4)GlcNAc(b1-3)Gal(b1-4)GlcNAc(b1-3)Gal(b1-4)GlcNAc(b1-3)Gal(b1-4)GlcNAc(b1-2)Man(a1-3)]Man(b1-4)GlcNAc(b1-4)[Fuc(a1-6)]GlcNAc
# Procedure, shortened: as §1
# [13] = target: Gal(b1-4)GlcNAc(b1-3)Gal(b1-4)GlcNAc(b1-3)Gal(b1-4)GlcNAc(b1-3)Gal(b1-4)GlcNAc(b1-3)Gal(b1-4)GlcNAc(b1-3)Gal(b1-4)GlcNAc(b1-2)Man(a1-3)[Gal(b1-4)GlcNAc(b1-3)Gal(b1-4)GlcNAc(b1-3)Gal(b1-4)GlcNAc(b1-3)Gal(b1-4)GlcNAc(b1-3)Gal(b1-4)GlcNAc(b1-3)Gal(b1-4)GlcNAc(b1-2)Man(a1-6)]Man(b1-4)GlcNAc(b1-4)GlcNAc
# Procedure, shortened: as §1
# [14] = target: Gal(b1-4)GlcNAc(b1-3)Gal(b1-4)GlcNAc(b1-3)GalNAc
# Procedure, shortened: as §1
# [15] = target: Gal(b1-4)GlcNAc(b1-3)Gal(b1-4)GlcNAc(b1-3)[Gal(b1-4)GlcNAc(b1-3)Gal(b1-4)GlcNAc(b1-6)]GalNAc
# Procedure, shortened: as §1
# [16] = target: Gal(b1-4)GlcNAc(b1-3)Gal(b1-4)GlcNAc(b1-6)[Gal(b1-3)]GalNAc
# Procedure, shortened: as §1
# [17] = target: Gal(b1-4)GlcNAc(b1-3)Gal(b1-4)[Fuc(a1-3)]GlcNAc(b1-3)Gal(b1-4)[Fuc(a1-3)]GlcNAc
# Procedure, shortened: as §1
# [18] = target: Gal(b1-4)GlcNAc(b1-3)GalNAc
# Procedure, shortened: as §1
# [19] = target: Gal(b1-4)GlcNAc(b1-3)[Fuc(a1-3)GlcNAc(b1-6)]Gal(b1-4)Glc
# Procedure, shortened: as §1
# [20] = target: Gal(b1-4)GlcNAc(b1-3)[Gal(b1-4)GlcNAc(b1-6)]Gal(b1-4)GlcNAc
# Procedure, shortened: as §1
# [21] = target: Gal(b1-4)GlcNAc(b1-3)[GlcNAc(b1-6)]Gal(b1-4)GlcNAc
# Procedure, shortened: as §1
# [22] = target: Gal(b1-4)GlcNAc(b1-6)Gal(b1-4)GlcNAc
# Procedure, shortened: as §1
binder,measurement,setting,value
B1,glycan array binding signal (z-score),[1],-0.032
same,glycan array binding signal (z-score),[2],0.113
same,glycan array binding signal (z-score),[3],-0.343
same,glycan array binding signal (z-score),[4],0.45
same,glycan array binding signal (z-score),[5],0.04
same,glycan array binding signal (z-score),[6],-0.172
same,glycan array binding signal (z-score),[7],0.13
same,glycan array binding signal (z-score),[8],0.588
same,glycan array binding signal (z-score),[9],0.203
same,glycan array binding signal (z-score),[10],0.068
same,glycan array binding signal (z-score),[11],0.086
same,glycan array binding signal (z-score),[12],0.187
same,glycan array binding signal (z-score),[13],0.487
same,glycan array binding signal (z-score),[14],-0.105
same,glycan array binding signal (z-score),[15],0.047
same,glycan array binding signal (z-score),[16],-0.244
same,glycan array binding signal (z-score),[17],0.042
same,glycan array binding signal (z-score),[18],-0.371
same,glycan array binding signal (z-score),[19],-0.111
same,glycan array binding signal (z-score),[20],-0.088
same,glycan array binding signal (z-score),[21],-0.011
same,glycan array binding signal (z-score),[22],-0.386

# Source: the supplement of paper PMC8728848
